In the supplement of paper PMC4967469 one finds AUC and IC50 data, which are given here for 7 cell lines.

By IC50 is meant the dose at which the fit gives 50% viability; fits outside the tested doses are given as limits. The AUC spans the tested range (256-fold, ending at the top dose) of the same fit; values near 1 show little effect. For some of these results: Any top dose called inferred was derived from the fitted curves, not read from the paper. For some of these results: Drugs with an entry number were screened twice under separate entries, and the two screens often disagree.

Holding throughout (assay): Viability of human cancer cell lines after 72 h of drug (GDSC screen)
Compound in one assay: C#Cc1cccc(Nc2ncnc3cc(OC)c(OCCCCCCC(=O)NO)cc23)c1 [CUDC-101]
To be noted: top dose 5.12 µM; top dose inferred. On the procedure:
(§1)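 Human cancer cell lines in 384-well plates, medium with 10% serum, drug for 72 h over a 256-fold dose range (nine 2-fold or five 4-fold steps up to the top dose). Adherent lines were fixed and stained with the nucleic acid dye Syto60, suspension lines read with resazurin; signal relative to control wells, capped at 0 and 100%. One two-parameter sigmoid per drug and line, fitted in a mixed model over all curves with the slope shared within a line.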

Compound in another assay: CC(C)(C)c1cc(NC(=O)Nc2ccc(-c3cn4c(n3)sc3cc(OCCN5CCOCC5)ccc34)cc2)no1 [AC220]
To be noted: top dose 1.024 µM; top dose inferred. On the procedure:
as §1

Compound in a further assay: COc1cc(F)c(F)c(Nc2ccc(I)cc2F)c1NS(=O)(=O)C1(C[C@H](O)CO)CC1 [RDEA119]
The following applies: top dose 5 µM, top dose inferred. On the procedure:
as §1

Compound in the next assay: Fc1cc(-c2ccnc(Nc3ccc(-n4cnc(N5CCOCC5)n4)cc3)n2)cc(N2CCOCC2)c1 [JNK-9L]
To be noted: top dose 5.12 µM; top dose inferred. On the procedure: as §1

Compound in a further assay: NCC(=O)Nc1ccc(-n2nc(C(F)(F)F)cc2-c2ccc3c(ccc4ccccc43)c2)cc1 [OSU-03012]
The following applies: top dose 16 µM; top dose inferred. On the procedure:
as §1

Compound in the next assay: O=c1[nH]cc(F)c(=O)[nH]1 [5-Fluorouracil]
To be noted: top dose 32 µM; top dose inferred. On the procedure:
as §1

Compound in a further assay: OC[C@H](Cc1ccccc1)Nc1nc(Oc2ccc3c(c2)CCC3)nc2c1ncn2Cc1ccc(-c2ccccc2)cc1 [QS11]
To be noted: top dose 10.24 µM. On the procedure: as §1

Broadly, the IC50 is the point on the concentration scale where inhibition reaches its midpoint. Regarding HD-MY-Z (Hodgkin lymphoma, adherent), the AUC with CUDC-101 came out at 0.482; in the assay with AC220, 0.876; with RDEA119 (screen: GDSC drug entry 1014), 0.666; with RDEA119 (screen: GDSC drug entry 1526), 0.772; with JNK-9L, 0.724; with OSU-03012 it was 0.762. Further, the AUC in the assay with 5-Fluorouracil was determined as 0.753; in the assay with QS11 it was 0.93. For the same cell line, the half-maximal inhibitory concentration (IC50) with CUDC-101 is 0.285 µM; with AC220 it was greater than 1.02 µM; with RDEA119 (screen: GDSC drug entry 1014), 0.909 µM; with RDEA119 (screen: GDSC drug entry 1526), 1.94 µM; with JNK-9L it was 1.39 µM; in the assay with OSU-03012 it was 5.76 µM. The IC50 with 5-Fluorouracil is 10.7 µM; in the assay with QS11, greater than 10.2 µM.
As for HDLM-2 (Hodgkin lymphoma, suspension), the AUC in the assay with CUDC-101 was 0.832; with AC220, 0.988; in the assay with RDEA119 (screen: GDSC drug entry 1014) it was 0.981; with RDEA119 (screen: GDSC drug entry 1526) it was 0.98; with JNK-9L, 0.619; with OSU-03012, 0.805. In addition, the AUC in the assay with 5-Fluorouracil is 0.989; with QS11, 0.982. The concentration for half-maximal inhibition (IC50) with CUDC-101 is 3.2 µM; with AC220 it was greater than 1.02 µM; in the assay with RDEA119 (screen: GDSC drug entry 1014) it was greater than 5 µM; with RDEA119 (screen: GDSC drug entry 1526) it was greater than 5 µM; with JNK-9L, 0.677 µM; with OSU-03012, 7.94 µM. Further, the 50% inhibitory concentration (IC50) is greater than 32 µM in the assay with 5-Fluorouracil and greater than 10.2 µM in the assay with QS11.
For the cell line HDQ-P1 (breast, adherent), the AUC came out at 0.578 with CUDC-101; 0.985 in the assay with AC220; 0.763 in the assay with RDEA119 (screen: GDSC drug entry 1014); 0.939 with RDEA119 (screen: GDSC drug entry 1526); 0.752 with JNK-9L; 0.759 in the assay with OSU-03012. Further, the figures for the AUC with 5-Fluorouracil and in the assay with QS11 were 0.745 and 0.976, respectively. Also, the IC50 with CUDC-101 was 0.545 µM; with AC220, greater than 1.02 µM; with RDEA119 (screen: GDSC drug entry 1014) it was 2.13 µM; in the assay with RDEA119 (screen: GDSC drug entry 1526), greater than 5 µM; with JNK-9L, 2 µM; in the assay with OSU-03012, 6.59 µM. Further, the IC50 in the assay with 5-Fluorouracil is 11.7 µM; with QS11 it was greater than 10.2 µM.
As for HEC-1 (endometrium, adherent), the AUC with CUDC-101 came to 0.676; with AC220 it was 0.987; with RDEA119 (screen: GDSC drug entry 1014) it was 0.948; with RDEA119 (screen: GDSC drug entry 1526), 0.979; with JNK-9L it was 0.691; with OSU-03012, 0.715. For the same cell line, the AUC with 5-Fluorouracil was found to be 0.989; in the assay with QS11, 0.958. Besides, the IC50 was 0.969 µM in the assay with CUDC-101; greater than 1.02 µM with AC220; greater than 5 µM with RDEA119 (screen: GDSC drug entry 1014); greater than 5 µM in the assay with RDEA119 (screen: GDSC drug entry 1526); 1.08 µM with JNK-9L; 3.94 µM with OSU-03012. The values for the IC50 with 5-Fluorouracil and in the assay with QS11 were greater than 32 µM and greater than 10.2 µM, respectively.
As for “HEL (acute myeloid leukaemia, semi-adherent)”, the AUC with CUDC-101 stood at 0.409; in the assay with AC220, 0.971; in the assay with RDEA119 (screen: GDSC drug entry 1526), 0.991; with JNK-9L it was 0.62; with OSU-03012 it was 0.591; with 5-Fluorouracil it was 0.397. Besides, the AUC with QS11 came out at 0.773. Besides, the IC50 with CUDC-101 was 0.188 µM; with AC220 it was greater than 1.02 µM; with RDEA119 (screen: GDSC drug entry 1526), greater than 5 µM; in the assay with JNK-9L it was 0.643 µM; with OSU-03012, 1.7 µM; in the assay with 5-Fluorouracil it was 1.1 µM. For the same cell line, the 50% inhibitory concentration (IC50) in the assay with QS11 was 3.33 µM.
Turning to HGC-27 (stomach, adherent), the AUC in the assay with CUDC-101 was 0.595; in the assay with AC220, 0.948; with RDEA119 (screen: GDSC drug entry 1014) it was 0.99; with RDEA119 (screen: GDSC drug entry 1526), 0.961; with JNK-9L, 0.456; with OSU-03012 it was 0.429. Also, the AUC with 5-Fluorouracil was 0.891; with QS11 it was 0.712. Moreover, the 50% inhibitory concentration (IC50) with CUDC-101 was 0.558 µM; with AC220 it was greater than 1.02 µM; in the assay with RDEA119 (screen: GDSC drug entry 1014) it was greater than 5 µM; with RDEA119 (screen: GDSC drug entry 1526), greater than 5 µM; with JNK-9L, 0.247 µM; with OSU-03012, 0.661 µM. Moreover, in the assay with QS11, the concentration for half-maximal inhibition (IC50) worked out at 2.28 µM.
Regarding HH (T-cell leukaemia, suspension), the AUC came to 0.494 with CUDC-101; 0.944 with AC220; 0.966 with RDEA119 (screen: GDSC drug entry 1014); 0.913 in the assay with RDEA119 (screen: GDSC drug entry 1526); 0.523 with JNK-9L; 0.708 with OSU-03012. Moreover, the AUC in the assay with 5-Fluorouracil worked out at 0.646; in the assay with QS11, 0.925. Moreover, the IC50 is 0.306 µM with CUDC-101; greater than 1.02 µM with AC220; greater than 5 µM in the assay with RDEA119 (screen: GDSC drug entry 1014); greater than 5 µM with RDEA119 (screen: GDSC drug entry 1526); 0.376 µM with JNK-9L; 4.75 µM in the assay with OSU-03012. Further, the values for the half-inhibitory concentration (IC50) with 5-Fluorouracil and in the assay with QS11 were 5.8 µM and greater than 10.2 µM, respectively.
